Experimental data published in US20070128217A1.

B1: SC03-001 (scFv)
scFv: SMAEVQLVESGGGLVKPGGSLRLSCAASGFTFSGYSMNWVRQAPGKGLEWVSSISGGSTYYADSRKGRFTISRDNSKNTLYLQMNNLRAEDTAVYYCARHRFRHVFDYWGQGTLVTVLEGTGGSGGTGSGTGTSELTQSPSSLSASVGDRVTIT[about 80 residues left out here]FGQGTKVEIKRAAA
B2: SC03-013 (scFv)
scFv: AMAEVQLVESGGGLVQPGGSLRLSCAASGFTFSDHYMDWVRQAPGKGLEWVGRTRNKANSYTTEYAASVKGRFTISRDDSKNSLYLQMNSLKTEDTAVYYCAKGLTPLYFDYWGQGTLVTVSSGGGGSGGGGSGGGGSEIELTQSPSSLSASVGDRVTIT[about 80 residues left out here]FGQGTKVEIKRAAA
B3: SC03-002 (scFv)
scFv: SMAEVQLVESGGGLVKPGGSLRLSCAASGFTFSGYSMSWVRQAPGKGLEWVGRTRNKANSYTTEYAASVKGRFTISRDDSKNSLYLQMNSLKTEDTAVYYCARYYSRSLKAFDYWGQGTLVTVLEGTGGSGGTGSGTGTSELTQSPSSLSASVGDRVTIT[about 80 residues left out here]FGQGTKVEIKRAAA
B4: SC03-005 (scFv)
scFv: SMAEVQLVESGGGLIQPGGSLRLSCAASGFTFSGYTMSWVRQAPGQGLEWVSSISGGSTYYADSRKGRFTISRDNSKNTLYLQMNNLRAEDTAVYYCAKGGGRPYNPFDYWGQGTLVTVLEGTGGSGGTGSGTGTSELTQSPSSLSASVGDRVTIT[about 80 residues left out here]FGQGTKVEIKRAAA
B5: SC03-003 (scFv)
scFv: SMAEVQLVESGGGLVQPGGSLRLSCAASGFTFSSYPMNWVRQAPGKGLEWVSAISGSGGSTYYADSVKGRFTISRDNSKNTLYLQMNSLRAEDTAVYYCARRSYFRRFDYWGQGTLVTVLEGTGGSGGTGSGTGTSELTQSPSSLSASVGDRVTIT[about 80 residues left out here]FGQGTKVEIKRAAA
B6: SC03-008 (scFv)
scFv: SMAEVQLVESGGGVVQPGRSLRLSCAASGFTFSSYPMNWVRQAPGKGLEWVSAISGSGGSTYYADSVKGRFTISRDNSKNTLYLQMNSLRAEDTAVYYCARRVRPRRFDYWGQGTLVTVLEGTGGSGGTGSGTGTSELTQSPSSLSASVGDRVTIT[about 80 residues left out here]FGQGTKVEIKRAAA

The binders below were run against SARS-CoV preparation (Frankfurt 1 strain) (SARS-CoV strain Frankfurt 1).

In order of falling OD492nm:
1. B1  0.979 OD492nm
2. B2  0.979 OD492nm
3. B4  0.869 OD492nm
4. B3  0.841 OD492nm
5. B6  0.358 OD492nm
6. B5  0.192 OD492nm
